{
  "source": "the supplement of paper PMC9446081",
  "note": "Among all 39,000 compounds or so, about 220 (0.56%) showed activity. This is one part of the list.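 Note: static incubation at 37 °C against the wild-type strain, values averaged over two biological replicates.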",
  "data": [
    {"test_system": "Escherichia coli K-12 BW25113", "experiment": "relative growth (OD600 normalised to plate interquartile mean) (fraction); higher = less growth inhibition, active = 0.2 or less", "conditions": "50 µM; LB; incubation time: overnight (16-24 h)", "values": [
      {"smiles": "CN1C(=O)c2cc(NC(=O)c3cscn3)ccc2OC[C@H]2O[C@@H](CC(=O)N3CCOCC3)CC[C@@H]21", "relative growth": "inactive: 0.995"},
      {"smiles": "O=C(CN1CCOCC1)NCC[C@@H]1CC[C@@H](NC(=O)c2ccc3c(c2)OCO3)[C@H](CO)O1", "relative growth": "inactive: 1.03"},
      {"smiles": "C[C@@H]1CN([C@H](C)CO)C(=O)c2cc(NS(C)(=O)=O)ccc2O[C@@H]1CN(C)Cc1ccc(C(=O)Nc2ccccc2N)cc1", "relative growth": "inactive: 1.01"},
      {"smiles": "Cc1ccc(O)c(CO)n1", "relative growth": "inactive: 1.04"},
      {"smiles": "CC(=O)N(C)CP(=O)(O)CN1CCCC1=O", "relative growth": "inactive: 1.03"},
      {"smiles": "C[C@H]1CN([C@@H](C)CO)C(=O)c2cc(NS(C)(=O)=O)ccc2O[C@@H]1CN(C)Cc1ccc2c(c1)OCO2", "relative growth": "inactive: 0.987"},
      {"smiles": "C[C@H](CO)N1C[C@H](C)[C@@H](CN(C)S(=O)(=O)c2ccccc2)Oc2ccc(NC(=O)Nc3cccc4ccccc34)cc2C1=O", "relative growth": "inactive: 1"},
      {"smiles": "COc1ccc(S(=O)(=O)Nc2ccc3c(c2)C(=O)N([C@H](C)CO)C[C@H](C)[C@@H](CN(C)S(=O)(=O)c2ccc(OC)cc2)O3)cc1", "relative growth": "inactive: 1.05"},
      {"smiles": "COc1ccc(S(=O)(=O)Nc2ccc3c(c2)CC(=O)N([C@H](C)CO)C[C@H](C)[C@H](CN(C)Cc2ccncc2)O3)cc1", "relative growth": "inactive: 0.996"},
      {"smiles": "COc1ccc(S(=O)(=O)N[C@@H]2C=C[C@H](CC(=O)NCCc3ccncc3)O[C@@H]2CO)cc1", "relative growth": "inactive: 1.01"},
      {"smiles": "C#CC1(O)CCC2C3CCC4=CCCCC4C3CCC21C", "note": "(configuration not stated)", "relative growth": "inactive: 1.05"},
      {"smiles": "C[C@H](CO)N1C[C@H](C)[C@H](CN(C)Cc2ccc(-c3ccccc3)cc2)Oc2ccc(NC(=O)CCC(F)(F)F)cc2CC1=O", "relative growth": "inactive: 0.986"},
      {"smiles": "C=CCOC(=O)[C@H]1[C@@H]2C(=O)O[C@@H](c3ccccc3)[C@@H](c3ccccc3)N2[C@@H](c2ccc(OCCOC(=O)[C@@H]3C[C@@H]4C(=O)N[C@@H](CCCC[N+](C)(C)C)C(=O)N4[C@@H]3c3ccc(O)cc3)cc2)[C@]12C(=O)Nc1ccc(I)cc12", "relative growth": "inactive: 1.01"},
      {"smiles": "C[C@@H]1CN([C@@H](C)CO)C(=O)c2cccc(NS(=O)(=O)c3cccs3)c2O[C@H]1CN(C)C(=O)Nc1cccc2ccccc12", "relative growth": "inactive: 1.01"},
      {"smiles": "COc1ccc(NC(=O)N2C[C@@H](O)COC[C@@H]3O[C@H](CC(=O)NCc4ccccc4OC)CC[C@H]32)cc1", "relative growth": "inactive: 1.01"},
      {"smiles": "C[C@@H]1CN([C@H](C)CO)C(=O)c2c(c3ccccc3n2C)-c2ccccc2CO[C@H]1CN(C)C(=O)Nc1cccc(C(F)(F)F)c1", "relative growth": "inactive: 0.993"},
      {"smiles": "COCC(=O)N1C[C@@H](C)[C@@H](OC)CN(C)C(=O)c2ccc(NC(=O)c3cc(C)on3)cc2OC[C@@H]1C", "relative growth": "inactive: 0.975"}
    ]}
  ]
}
